Results published in publication PMC8308780, “Antiviral Activity of Isoquinolone Derivatives against Influenza Viruses and Their Cytotoxicity” (Pharmaceuticals, 2021).

Test system: PR8 virus

SMILES: COc1cc2cc(-c3ccccc3)[nH]c(=O)c2cc1OC [Compound 21, 6,7-dimethoxy-3-phenylisoquinolone]
- NP expression (Western blot): inhibition of NP expression
